Where “and” joins values, the source holds several entries; their conditions need not be identical. Identical values can stand only once. Hit rate of the full screen: of about 360,000 compounds, about 16,000 (4.4%) were called active. The shares of active, inactive and inconclusive entries below differ from those in the screen. The call rests on the fitted dose curve; in most records, active means well fitted inhibition curve with a large enough effect; inconclusive means small, poorly fitted or top-dose-only effect; inactive means no such curve, though single readings can be large or run the other way. A potency beside an inconclusive call is a rough fit, not a confirmed value.
biological target: Bromodomain adjacent to zinc finger domain protein 2B (Homo sapiens) (UniProt Q9UIF8); assay: qHTS Assay for Inhibitors of BAZ2B; settings: AlphaScreen BAZ2B-H3K14Ac peptide displacement; series mostly up to 114 µM; further: nearly all actives have a fitted effect of over 60% in size
In short: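 Multi-concentration screen (max 110 uM) measuring displacement of acetylated histone H3 peptide from BAZ2B by AlphaScreen, using 50 nM protein, 50 nM peptide and 10 ug/mL streptavidin donor plus Ni-chelate acceptor beads.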
Potency means the concentration at half of the fitted maximal effect; tags describe the fitted curve by direction and shape.

Sequence of UniProt Q9UIF8 (Q9UIF8 whole entry, looked up, the tested form may be a part): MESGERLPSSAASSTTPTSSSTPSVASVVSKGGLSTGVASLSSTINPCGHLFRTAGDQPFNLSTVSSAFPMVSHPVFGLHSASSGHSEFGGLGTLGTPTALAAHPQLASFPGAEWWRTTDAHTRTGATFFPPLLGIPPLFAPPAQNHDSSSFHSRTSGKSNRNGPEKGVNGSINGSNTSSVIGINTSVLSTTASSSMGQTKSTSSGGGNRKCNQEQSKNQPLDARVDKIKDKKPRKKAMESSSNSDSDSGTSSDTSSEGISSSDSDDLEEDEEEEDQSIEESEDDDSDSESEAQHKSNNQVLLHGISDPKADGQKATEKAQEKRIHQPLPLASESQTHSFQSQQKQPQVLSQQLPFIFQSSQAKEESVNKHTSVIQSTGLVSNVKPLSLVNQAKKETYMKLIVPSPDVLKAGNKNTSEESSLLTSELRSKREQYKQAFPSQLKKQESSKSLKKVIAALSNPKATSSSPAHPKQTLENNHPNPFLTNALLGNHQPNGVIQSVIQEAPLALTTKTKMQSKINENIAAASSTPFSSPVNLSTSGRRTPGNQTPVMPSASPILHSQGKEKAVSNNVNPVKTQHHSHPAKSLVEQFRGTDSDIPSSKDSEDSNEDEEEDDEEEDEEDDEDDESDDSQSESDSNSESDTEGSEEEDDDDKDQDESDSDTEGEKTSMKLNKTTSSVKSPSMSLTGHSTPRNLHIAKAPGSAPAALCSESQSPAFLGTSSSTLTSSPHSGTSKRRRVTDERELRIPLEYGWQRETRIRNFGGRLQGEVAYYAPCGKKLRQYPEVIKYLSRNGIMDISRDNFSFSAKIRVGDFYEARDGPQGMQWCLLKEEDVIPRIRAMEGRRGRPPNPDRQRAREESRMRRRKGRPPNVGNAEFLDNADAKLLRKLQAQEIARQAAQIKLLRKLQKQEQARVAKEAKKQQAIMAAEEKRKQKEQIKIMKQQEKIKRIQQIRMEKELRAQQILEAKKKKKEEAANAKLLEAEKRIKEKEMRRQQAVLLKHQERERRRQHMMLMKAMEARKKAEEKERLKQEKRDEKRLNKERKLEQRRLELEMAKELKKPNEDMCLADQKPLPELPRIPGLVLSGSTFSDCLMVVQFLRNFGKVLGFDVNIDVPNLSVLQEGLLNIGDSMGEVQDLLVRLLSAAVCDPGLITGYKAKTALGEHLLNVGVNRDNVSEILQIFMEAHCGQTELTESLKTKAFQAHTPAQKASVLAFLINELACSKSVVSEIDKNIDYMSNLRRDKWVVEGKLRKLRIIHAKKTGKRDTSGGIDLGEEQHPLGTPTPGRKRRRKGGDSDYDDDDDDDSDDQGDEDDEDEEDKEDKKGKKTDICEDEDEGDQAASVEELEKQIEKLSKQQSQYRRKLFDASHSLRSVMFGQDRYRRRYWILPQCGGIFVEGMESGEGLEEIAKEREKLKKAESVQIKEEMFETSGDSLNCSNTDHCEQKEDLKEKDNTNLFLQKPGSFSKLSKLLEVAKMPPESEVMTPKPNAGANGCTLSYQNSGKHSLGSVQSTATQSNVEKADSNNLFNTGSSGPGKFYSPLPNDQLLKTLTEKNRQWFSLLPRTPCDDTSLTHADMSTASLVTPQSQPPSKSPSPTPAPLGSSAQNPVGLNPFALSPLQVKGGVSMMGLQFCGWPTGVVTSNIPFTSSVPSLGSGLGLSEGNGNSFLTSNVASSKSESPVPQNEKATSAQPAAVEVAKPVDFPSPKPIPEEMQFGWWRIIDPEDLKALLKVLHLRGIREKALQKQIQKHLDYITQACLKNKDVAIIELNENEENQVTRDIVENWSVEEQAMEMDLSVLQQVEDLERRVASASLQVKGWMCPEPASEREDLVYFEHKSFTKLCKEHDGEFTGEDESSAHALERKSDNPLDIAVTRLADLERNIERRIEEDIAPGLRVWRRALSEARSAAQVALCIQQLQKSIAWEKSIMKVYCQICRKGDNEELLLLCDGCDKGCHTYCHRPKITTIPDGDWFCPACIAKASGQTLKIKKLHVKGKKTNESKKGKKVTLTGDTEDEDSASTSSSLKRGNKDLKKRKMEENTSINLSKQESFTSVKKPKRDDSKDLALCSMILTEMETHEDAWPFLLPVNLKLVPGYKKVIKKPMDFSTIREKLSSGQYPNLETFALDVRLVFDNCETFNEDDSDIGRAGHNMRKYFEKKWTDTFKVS

Row | Compound | Potency
1 | O=C(NCc1ccc(Cl)cc1)c1cc(S(=O)(=O)N2CCCCC2)c[nH]1 | inconclusive: 89.1 µM [inhibitor, single point] and inconclusive: 79.4 µM [inhibitor, single point]
2 | COc1ccccc1NC(=O)Cn1nc(-c2ccc3c(c2)OCCO3)ccc1=O | inactive
3 | CCOCCCNC(=O)/C(C#N)=C/c1cc(OC)c(O)c([N+](=O)[O-])c1 | inconclusive: 70.8 µM [inhibitor, single point]
4 | Cc1[nH]c2ccc(Br)cc2c(=S)c1C/C=C/Cl | inconclusive: 35.5 µM [inhibitor, partial curve]
5 | CCOC(=O)C(C)Sc1ccc2nnc(-c3ccc(F)cc3)n2n1 (stereo not given) | inactive
6 | O=C(CCc1ccccc1)Nc1nn[nH]n1 | active: 70.8 µM
7 | COc1ccc(/C=N/N=C2/NC(=O)C(CC(=O)O)S2)cc1OCc1ccc(Cl)cc1 (stereo not given) | inconclusive: 89.1 µM [inhibitor, single point]
8 | Clc1ccc(N/N=C/c2cccnc2)cc1 | inconclusive: 79.4 µM [inhibitor, single point]
9 | COC(=O)CCC(=O)OC1(C)C(=O)C2=CN(C(CO)CO)C(c3ccc(OC)cc3)=CC2=C(Br)C1=O (stereo not given) | inconclusive: 79.4 µM [inhibitor, single point]
10 | NS(=O)(=O)c1ccc(NC(=S)NC(=O)/C=C/c2ccco2)cc1 | inconclusive: 79.4 µM [inhibitor, single point]
11 | CCC(C(=O)OC(C)C)c1ccc2ccccc2c1 (stereo not given) | inactive
12 | C=CCNC(=O)c1ccccc1NS(=O)(=O)c1ccc(OC)c(C(=O)N2CCOCC2)c1 | inactive
13 | Cc1cc(C(=O)Nc2ccc(Cl)c(S(=O)(=O)N3CCOCC3)c2)c2ccccc2n1 | inactive
14 | CN1CCC(OC(=O)COc2ccc(Cl)cc2Cl)CC1 | inconclusive: 89.1 µM [inhibitor, single point]
15 | O=c1oc2cc(Cl)ccc2n1CSc1nc2ccccc2s1 | inactive
16 | O=C(Sc1cccc2cccnc12)c1ccc(F)cc1 | inconclusive: 35.5 µM [inhibitor, full curve]
17 | Cc1cc(C)c2nc(-c3ccncc3)cc(C(=O)N3CCN(Cc4ccccc4Cl)CC3)c2c1 | inconclusive: 25.1 µM [inhibitor, partial curve]
18 | COC(=O)c1c(C)oc2ccc(N(C(=O)c3ccncc3)S(=O)(=O)c3ccc(C)cc3C)cc12 | inactive
19 | CC(=O)N1CCOc2cc(S(=O)(=O)Nc3cccc(C(F)(F)F)c3)c(Cl)cc21 | inactive
20 | O=C(/C=C/c1c(Cl)cccc1Cl)NCc1ccco1 | inactive
21 | CC1(NC(=O)CCc2nc3sc4c(c3c(=O)[nH]2)CCCC4)CCS(=O)(=O)C1 (stereo not given) | active: 79.4 µM
22 | CN1CCN(C(=S)NC(=O)c2ccc(S(=O)(=O)N3CCOCC3)cc2)CC1 | inconclusive: 79.4 µM [inhibitor, single point]
23 | Cc1cc2cc(C)c(SCC(=O)NCc3ccco3)nc2cc1C | inconclusive: 50.1 µM [inhibitor, partial curve]

Row | Compound | Potency
24 | N#Cc1ccc(COC(=O)c2ccc(N3CCCC3)c([N+](=O)[O-])c2)cc1 | inconclusive: 25.1 µM [inhibitor, full curve]
25 | Cc1cn2c(=O)cc(COc3cccc(NC(=O)c4ccccc4C)c3)nc2s1 | inactive
26 | CC(C)N1CCc2c(sc(NC(=O)c3ccc(C(=O)c4ccccc4)cc3)c2C(N)=O)C1 | inconclusive: 50.1 µM [inhibitor, partial curve]
27 | O=C(O)c1cccc(-c2ccc(/C=C3/SC(=Nc4ccccc4)N(Cc4cccnc4)C3=O)o2)c1 | active: 50.1 µM
28 | COc1ccc(Cc2nc3ccc(C(=O)NCC4COCCO4)cc3o2)cc1 (stereo not given) | inactive
29 | COC(=O)c1ccccc1NC1OC(=O)c2ccccc21 (stereo not given) | inconclusive: 89.1 µM [inhibitor, single point]
30 | CC1CCN(CC(O)COCCC23CC4CC(CC(C4)C2)C3)CC1 (stereo not given) | inconclusive: 12.6 µM [inhibitor, single point]
31 | CCC(=O)N(CCC(c1ccccc1)c1ccco1)Cc1cccs1 (stereo not given) | inconclusive: 44.7 µM [inhibitor, partial curve, poor fit]
32 | O=C(CSc1nnc(-c2ccc(O)cc2)o1)NNC(=O)c1ccncc1 | inconclusive: 79.4 µM [inhibitor, partial curve]
33 | COC1(OC)N=C(N)C2(C#N)C(c3ccc(C)cc3)C12C#N (stereo not given) | inconclusive: 100 µM [inhibitor, single point]
34 | Cc1ccc(C)c(NC(=O)c2ccc3c(O)c(S(=O)(=O)c4ccc(Cl)cc4)c(=O)[nH]c3c2)c1 | inactive
35 | COc1ccc(CCNC(=O)CSC(=O)c2ccccc2)cc1OC | inactive
36 | Cc1ccc(NC2=C(c3ccc(C(F)(F)F)cc3)C(=O)c3ccccc32)cc1C | active: 56.2 µM
37 | Cc1ccc(S(=O)(=O)c2nc(-c3ccccc3F)oc2N2CCCCC2)cc1 | inconclusive: 11.2 µM [inhibitor, full curve]
38 | O=C(COC(=O)c1ccc(S(=O)(=O)NCc2ccco2)cc1)NC1CCCCCC1 | inconclusive: 89.1 µM [inhibitor, single point]
39 | Brc1ccc(CSc2nnc(-c3cnccn3)n2Cc2ccco2)cc1 | inconclusive: 89.1 µM [inhibitor, single point]
40 | CC1(C)OC2C(CO)OC(n3cnc4c(=S)nc[nH]c43)C2O1 (stereo not given) | active: 50.1 µM
41 | Cc1cc(NS(=O)(=O)c2ccc(NC(=O)CN3C(=O)NC(C)(c4ccccc4)C3=O)cc2)nc(C)n1 (stereo not given) | inactive
42 | CCN(Cc1ccccc1)S(=O)(=O)c1ccc(C(=O)N(CCCN(C)C)c2nc3cc4c(cc3s2)OCCO4)cc1 | active: 35.5 µM
43 | Cc1ccc(-c2cc(C(=O)Nc3ccc(S(=O)(=O)Nc4ncccn4)cc3)[nH]n2)c(O)c1C | inactive
44 | CCc1c(C)sc2c1CCN(Cc1cccc(F)c1)C2c1ccccc1 (stereo not given) | inconclusive: 79.4 µM [inhibitor, partial curve]
45 | Cc1cc(OC(=O)c2ccc(C(F)(F)F)cc2)c([N+](=O)[O-])c(=O)[nH]1 | inconclusive: 100 µM [inhibitor, single point]
